For 1 compound, growth results are on record in PubChem BioAssay (NCI).

The source holds several records for some structures; these can differ, active in one and inactive in another.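 Note: values are percent growth. 100 is the growth of untreated cells, values between 100 and 0 indicate rising inhibition; between -100 and 0 indicates cell death.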 A number of entries come with more than one value. Only these are listed. Rule for the calls: active = growth percent below 10; inactive = the rest. An entry can have further records. The screen tested this drug many times, at the concentration stated with the values; each value is one run. Signs of the kind (2×) say how often a value occurs here.

The assay deals with NCI-H226 lung. The assay is described as follows: NCI-60 one-dose screen, 48 h (100 = growth as untreated, 0 = no growth, -100 = all killed).

As for `COc1cccc2c1C(=O)c1c(O)c3c(c(O)c1C2=O)C[C@@](O)(C(=O)CO)C[C@@H]3OC1CC(N)C(O)C(C)O1` (stereo not given in full), the growth entry by setting is: (0.25 µM, runs of 2009) “active: -21.6, -19.4, 0.224, -15.2, -19.3, 2.75, 9.97, 0.689, 1.33, 2.63, -9.31, -0.801, -1.51, -10.3, -9.46, 2.49, -22.7, -0.36, -7.61, -17.5, -15.1, -24.3, -34.9, -7.52, -28.7, -47.9, -6.51, -13.2, -31.9, -42.4, -8.8, -9.38% and inactive: 41.6, 46.2, 21, 14.5, 12.8 (2×), 17.1, 20.8, 17.9, 10.9, 26.9, 27.8 (2×), 27.2, 19.8, 21.1, 32.1, 28.6, 21.9, 40.3, 61.6, 45.3, 45.4, 57.8, 48, 29, 22, 33.5, 14.4, 25.5, 18.4, 17.7, 43.7, 29.7, 44.9, 12.7, 26.8, 23.7%”; (0.25 µM, runs of 2010) “active: -7.35, -5.65, -4.53, -8.1, 5.71, 4.7, -23, 6.15, 8.17, -25.2, -22.9, 2.5, 9.46, 2.17, 3.53, 2.4, -7.93, 0.691, -4.14, -11.9, -52.8, -32.4, -9.8, 0.571, -8.4, 8.06, -1.92, 2.45, 5.26, 0.456, -4.5, -18.6, -18.4, -16, -10.6, -6.05% and inactive: 17.3, 13.5, 12.7, 24.4, 31.6, 37.9, 11.9, 18.5, 12.9 (2×), 34.6, 29.3, 33.6, 18.6, 16.4, 24, 21.3%”; (0.25 µM, runs of 2011) “active: -2.94, 4.53, 8.12, -2.32, -22.5, -16.6 (2×), -28, -13, -36.3, 9.92, -14.1, -36.7, -12.7, -7.04, 6.24, -6.62, -8.85, -11, -18, -12.2, 2.42, -8.92, -38.1, 1.43, 4, -3.92, -9.79, -12.6, -15.2, -32.5 (2×), 2.92, -7.79, -15.8, 6.66, 3.97, -4.06, -31.9, -5.97, 5.91, -11.7% and inactive: 18.4, 24.4, 29, 21.1, 17.8, 28.8 (2×), 18, 48, 46.9, 23.8, 25.8, 43, 14.8, 26%”; (0.25 µM, runs of 2012) “active: -5.08, -23.1 (2×), -37.9, -26.9, -5.74, -47.8, -43.9, -28.3, -68.2, -61.9, -67.5, -64, -53.1, -46.3, -43.7, -47, 4.98% and inactive: 17.9, 22.3, 15.7, 29, 47.6 (2×), 58.5, 38.8, 29.9 (2×), 49.6 (2×), 48.2, 59.7, 41.7, 49.1, 53.5, 50.3, 47.8, 33.7, 49.2, 21.2, 51.5, 32.9, 20.3, 37.8, 53.7, 52.7, 54.8, 53.1, 63.7, 63.4, 58.1, 57.3, 55.3, 64.1, 33.4 (2×), 27.1, 42.6, 24.5, 46.5, 46.6, 37, 25, 31.2, 45.1, 29.3, 31.1%”; (0.25 µM, runs of 2013) “inactive: 18.8 (2×), 32.9, 21.6, 12.3, 20.3, 23.2, 35.2 (2×), 15.9, 19.4, 28.8, 31.8, 22.7, 36.5 (2×), 26, 41.8, 32.3, 11.4, 14.2, 22.2 (2×), 24.4, 26.9, 36.2 (2×), 25.5, 28.7, 22.8, 40, 37.1 (2×), 31.1, 48.1, 53, 41.7, 46.8, 36.4, 52.5, 36.1, 41.1, 38, 42.5, 42.3, 48.3, 44.1, 41.6, 36.3, 31.7, 22.6 (2×), 37.6, 36.6, 33.6, 16.4, 12.7, 14.8, 21.4, 18.7, 13.5, 32.7, 25.6, 30.9, 12.6, 21.7, 11.5, 12.5% and active: 8.74, -18.6, 5.7, 5.15, -8.86, -2.93, -5.77, -8.44%”; (0.25 µM, runs of 2014) “active: -5.1, -2.44, -24.4, -20.7 (2×), -29.3, -5.31, -16.2, 6.25, -15.4, -16.6, 4.08, 2.38, -41.6, -38.9, -45.7, -42.5, -25.8, -24.7, -20.3, -11.6, -5.02, 2.66, -6.07, -5.86, 5.16, 3.9, 7.5, 6.95, 2.07, 3.59, 6.6, 6.37, 9.3 (2×), 4.82, 1.09, -5.18, -21.2, -45.9, -35, -16.5, -0.409, -38, -32.8, -29.5, 3.87, -25.4, -12.9, -15.9, -12.1, -18.4, -9.68, -6.98, -23.2, 1.36, -16.4, -1.08, -11.9, 4.42, 3.01, -19.6, -14.9, 7.33% and inactive: 17.4, 12.7 (2×), 37.8, 17.2, 33.8, 19.8, 13.2, 25.2 (2×), 16.5, 22.8, 21.4, 15.8, 10.3, 14.4, 36.8, 28.8%”. The growth result runs as follows: (0.25 µM, runs of 2015) “active: 8.24, 5.25, 0.736, -11.8, -1.88, 7.88, -9.11, -11.3, 8.02, -17.5, -1.74, -9.43, -28.1, -17.8, 5.31, -33.5, -2.56, -12.7, 6.58, -2.91, 3.64, 0.88, 0.659, 6.3, 1.05, -5.7, -3.17, 7.06, 5.97, 6.73% and inactive: 17, 27.2, 14.6 (2×), 23.1, 42, 10.9, 24.5, 48.6, 50.2, 44.2, 44, 48.2, 50.6, 38.5, 36.8, 24.1 (2×), 19.6, 20.3, 13.3, 32.8, 23.8, 18, 18.2, 16.5, 14.5, 20.9, 18.7, 32.6, 27.6, 17.7, 37, 28.5 (2×), 19.8, 12.7, 31.3, 27.8, 23.7, 21.3, 21.5, 30.2, 22, 39, 29.1, 17.4, 14, 31.1, 23, 19.7, 28.4%”; (0.25 µM, runs of 2016) “inactive: 31.3 (2×), 29.6, 27.1, 38.8, 45.9, 54.5, 51.5, 35.8 (2×), 39.4, 30.3, 34.1, 35.1, 30.6, 38, 17.4, 14.6, 12, 10.3, 11.4 (2×), 20.9, 20.5, 46.1 (2×), 53, 21.2, 49.4, 41.1, 40.9, 41, 39.1, 32.9, 39, 20.4, 26.9, 26.6, 14.2, 25.2, 16.4, 16.6, 13, 23.5, 15.3, 33.5, 31.1, 36.4, 26.5, 36.5, 57.9, 33.1, 27.4, 11.7, 60.8, 53.8, 40.2, 46.2, 41.5, 38.5, 45.3, 44.9, 52.9, 54.6% and active: -4.21 (2×), 2.72, 6.8, -2.73, 4.01, -7.01, 8.57, 8.54, -18.2, -21.3, -9.52, -3.99 (2×), -16, -2.94, -13.9, -9.79, 8.11, -4.47, 7.57%”; (0.25 µM, runs of 2017) “inactive: 56.1, 61.6, 55.4, 53.6, 57.7, 44, 35.8, 36.4, 27.5, 36.2, 18.5, 22.1, 18.4, 21.7, 27.2, 29.6, 35.9, 32.8, 45.4, 46.9, 54.9, 53.4, 46.3, 42.3, 32.7, 21.3, 26.8, 12.3, 18.1, 11 (2×), 25.1, 16.8, 13.1, 21.5, 17.9, 18.8, 15.1, 17.4, 27.3, 23.3, 45.2, 38.4, 46.2, 46.7, 44.8, 43.8, 50.8, 39.5, 47.3, 18, 31.6, 14.1, 11.6, 20.8, 16.6, 11.4, 14.4, 19.5, 16.4, 22.4, 29.1, 25, 10.9, 13.8% and active: 7.13, 0.384, 4.06, 4.96, 4.41, 9.04, 3.1, 3.65, 6.48, 5.07, 5.1, 2.27, -0.245%”; (0.25 µM, runs of 2018) “inactive: 45.6, 45.2, 42.4, 44, 35.1, 33.7 (2×), 29.6 (2×), 24.4, 26.5, 21.8, 40.5, 39.2, 35.3 (2×), 48.8, 42.2, 46.9, 47.8, 40.7, 25.3, 24.6, 22.1, 37.6, 24, 31.7, 26.3, 21.9, 29.5, 19.2, 23, 20.7, 20.2, 17.3, 29.2, 16.7% and active: -1.31, 3.07, -9.79, 4.66, -8.21, -12.8, -16.2, -7.55, -19.3, -4.79, -8.64, -20.9, -22.7, -33.7, -26%”; (0.25 µM, runs of 2019) “active: -29.6, -26.6, -19.3 (2×), -22.3, -23.9, -24.8, -12.2, 0.672, 3.15, -2.44, -24.1, -18, -23.1, -30.4, -21, -15.8, -14.6, -22.6% and inactive: 43.1, 35.6, 31.8, 33.5, 25.8, 30.7, 35.5, 41.6, 40.5, 40.4, 20.7, 29.4, 32.3, 31.1, 25.6, 39.9, 38.8, 40.3, 12, 13.5, 21.3, 21.5%”; (0.25 µM, runs of 2020) “inactive: 34.3 (2×), 30.8, 20.7, 14.8, 13.7, 12.3, 17.5, 15, 25.1, 18.5, 33.7, 46.2, 31.8, 41.6, 28.4, 22.4, 24.1, 22.3, 15.8, 12.4, 23.7% and active: 1.45%, -2.75%, 5.32%”. Also, the growth result runs as follows: (0.25 µM, runs of 2021) “inactive: 10.4, 35.8, 18.3, 13.8, 35.5, 47.7, 41.6, 38.4, 15.3 (2×), 30.1, 23.3, 11.3, 37.2, 36.2, 37.1, 29.8, 23.4, 19.4, 40.9, 25.2, 33.4, 38.6, 35.7% and active: 6.81, -1.71, 7.33, -18.8, -9.96, -0.162, 2.31, -7.01, -4.03, -9.22, -8.87, -1.03, 1.11, 6.39, 2, 2.16, -7, -5.55, -10.6, -25.5, -16.6, -45.3, -34, -44.9, -62, -79.3%”; (0.25 µM, runs of 2022) “active: -23.3, -19.6, -56.1, -14.4, 7.86, 4.64, -5.9, -21.7, -30.9, -38.1, -9.97, -12.6, -15.1, 2.76, -27.4% and inactive: 33.9, 19.2, 13.1, 25.3, 17.6, 28.6, 10.1, 45.3, 56.4, 23.6, 47.5, 51.7, 66.9%”; (25 µM, runs of 1991) “active: -55.3, -73.4, -70, -69.6 (2×), -68.7, -78.7, -29, -75.1, -71.2, -74, -18.1, -63.8, -65.3, -53.1, -64, -36.9%”.
